From article PMC12820563, “FoxP3 forms a head-to-head dimer in vivo and stabilizes its multimerization on adjacent microsatellites” come the findings set out here.

The other results are listed elsewhere or left out.

For this assay, the target named is T1, MBP-FoxP1dN (Mus musculus, UniProt P58462 326-579).
T1 sequence: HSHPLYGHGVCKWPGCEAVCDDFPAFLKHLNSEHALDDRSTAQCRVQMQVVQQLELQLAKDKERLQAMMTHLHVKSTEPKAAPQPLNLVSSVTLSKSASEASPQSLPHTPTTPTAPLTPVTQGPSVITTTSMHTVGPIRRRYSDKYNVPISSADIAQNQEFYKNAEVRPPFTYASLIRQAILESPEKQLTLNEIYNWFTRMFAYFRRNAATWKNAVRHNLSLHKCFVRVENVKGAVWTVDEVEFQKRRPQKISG
The assay can be described thus: PD-seq (MBP pull-down with sequencing); 20 mM Tris-HCl pH 7.5, 100 mM NaCl, 1.5 mM MgCl2, 0.4 uM protein, 0.1 uM dsDNA library, 30 min, room temperature, amylose pull-down; high values mean tight binding. As to conditions: protein: recombinant; tags: His6-MBP; chain copies: 2; dsDNA, one strand shown. Put shortly: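 His6-MBP-tagged mouse FoxP3 or FoxP1 fragment lacking the N-terminus, expressed in E. coli, was mixed at 0.4 µM with 0.1 µM Klenow-filled double-stranded degenerate DNA library. Incubation was 30 min at room temperature in Tris pH 7.5 buffer with NaCl and MgCl2. Complexes were caught on amylose resin and washed three times; DNA was released with proteinase K, PCR-barcoded and Illumina-sequenced. Binding is reads-per-million enrichment, pull-down over input, with replicates pooled.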
For “GATGATTGTTCTCCCAGCTGATGAATTATTGATCTCGAGTAAACAAATTTTCCTAATCTTTCTGTTCAAGCGCCATCTAC”, the binding signal is 1.39 RPM ratio (pull-down/input). Consider “GATGATTGTTCTCCCAGCTGATGAATTGTCGCTTTCGAGTAAACAAATTTTCCTAATCTTTCTGTTCAAGCGCCATCTAC”, for which the binding signal was 1.17 RPM ratio (pull-down/input). Consider “GATGATTGTTCTCCCAGCTGATGAATTTTGGGTATCGAGTAAACAAATTTTCCTAATCTTTCTGTTCAAGCGCCATCTAC”, for which the binding signal was 0.985 RPM ratio (pull-down/input). Under “GATGATTGTTCTCCCAGCTGATGAATTCTCTTTCTCGAGTAAACAAATTTTCCTAATCTTTCTGTTCAAGCGCCATCTAC” stands 0.806 RPM ratio (pull-down/input); under “GATGATTGTTCTCCCAGCTGATGAATTCAGGAGCTCGAGTAAACAAATTTTCCTAATCTTTCTGTTCAAGCGCCATCTAC”, 0.716 RPM ratio (pull-down/input); under “GATGATTGTTCTCCCAGCTGATGAATTTGCATGTTCGAGTAAACAAATTTTCCTAATCTTTCTGTTCAAGCGCCATCTAC”, 1.09 RPM ratio (pull-down/input). With “GATGATTGTTCTCCCAGCTGATGAATTACCTGTCTCGAGTAAACAAATTTTCCTAATCTTTCTGTTCAAGCGCCATCTAC”, the binding signal is 0.946 RPM ratio (pull-down/input). With “GATGATTGTTCTCCCAGCTGATGAATTGAACCCATCGAGTAAACAAATTTTCCTAATCTTTCTGTTCAAGCGCCATCTAC”, the binding signal was 0.829 RPM ratio (pull-down/input). For the sequence “GATGATTGTTCTCCCAGCTGATGAATTCGTTCGATCGAGTAAACAAATTTTCCTAATCTTTCTGTTCAAGCGCCATCTAC”, the binding signal was 0.911 RPM ratio (pull-down/input). Under “GATGATTGTTCTCCCAGCTGATGAATTCGACGAGTCGAGTAAACAAATTTTCCTAATCTTTCTGTTCAAGCGCCATCTAC” stands 0.772 RPM ratio (pull-down/input); under “GATGATTGTTCTCCCAGCTGATGAATTAGGTGCCTCGAGTAAACAAATTTTCCTAATCTTTCTGTTCAAGCGCCATCTAC”, 0.973 RPM ratio (pull-down/input); under “GATGATTGTTCTCCCAGCTGATGAATTATACTGATCGAGTAAACAAATTTTCCTAATCTTTCTGTTCAAGCGCCATCTAC”, 0.951 RPM ratio (pull-down/input). Under “GATGATTGTTCTCCCAGCTGATGAATTGGGTTGATCGAGTAAACAAATTTTCCTAATCTTTCTGTTCAAGCGCCATCTAC” stands 0.956 RPM ratio (pull-down/input). Under “GATGATTGTTCTCCCAGCTGATGAATTGGTTTCGTCGAGTAAACAAATTTTCCTAATCTTTCTGTTCAAGCGCCATCTAC” stands 0.978 RPM ratio (pull-down/input); under “GATGATTGTTCTCCCAGCTGATGAATTGAAGGTATCGAGTAAACAAATTTTCCTAATCTTTCTGTTCAAGCGCCATCTAC”, 0.906 RPM ratio (pull-down/input).

As to “GATGATTGTTCTCCCAGCTGATGAATTTGTTTGCTCGAGTAAACAAATTTTCCTAATCTTTCTGTTCAAGCGCCATCTAC”, the binding signal is 2.43 RPM ratio (pull-down/input).

For the sequence “GATGATTGTTCTCCCAGCTGATGAATTTAGCGCCTCGAGTAAACAAATTTTCCTAATCTTTCTGTTCAAGCGCCATCTAC”, the binding signal is 0.94 RPM ratio (pull-down/input).

In the case of “GATGATTGTTCTCCCAGCTGATGAATTCGGATCCTCGAGTAAACAAATTTTCCTAATCTTTCTGTTCAAGCGCCATCTAC”, the binding signal was 0.725 RPM ratio (pull-down/input). As to “GATGATTGTTCTCCCAGCTGATGAATTCCACGCGTCGAGTAAACAAATTTTCCTAATCTTTCTGTTCAAGCGCCATCTAC”, the binding signal was 0.96 RPM ratio (pull-down/input).

Turning to “GATGATTGTTCTCCCAGCTGATGAATTGGGGCTGTCGAGTAAACAAATTTTCCTAATCTTTCTGTTCAAGCGCCATCTAC”, the binding signal was 0.812 RPM ratio (pull-down/input). On to “GATGATTGTTCTCCCAGCTGATGAATTGAGATGTTCGAGTAAACAAATTTTCCTAATCTTTCTGTTCAAGCGCCATCTAC”, for which the binding signal is 0.906 RPM ratio (pull-down/input). On to “GATGATTGTTCTCCCAGCTGATGAATTACCCTTATCGAGTAAACAAATTTTCCTAATCTTTCTGTTCAAGCGCCATCTAC”, for which the binding signal is 0.979 RPM ratio (pull-down/input).

Consider “GATGATTGTTCTCCCAGCTGATGAATTTATTGGGTCGAGTAAACAAATTTTCCTAATCTTTCTGTTCAAGCGCCATCTAC”, for which the binding signal was 1.2 RPM ratio (pull-down/input). For “GATGATTGTTCTCCCAGCTGATGAATTGCCGGTGTCGAGTAAACAAATTTTCCTAATCTTTCTGTTCAAGCGCCATCTAC”, the binding signal was 0.916 RPM ratio (pull-down/input).

Turning to “GATGATTGTTCTCCCAGCTGATGAATTCCAAAACTCGAGTAAACAAATTTTCCTAATCTTTCTGTTCAAGCGCCATCTAC”, the binding signal was 0.884 RPM ratio (pull-down/input). In the case of “GATGATTGTTCTCCCAGCTGATGAATTCTCTTCTTCGAGTAAACAAATTTTCCTAATCTTTCTGTTCAAGCGCCATCTAC”, the binding signal is 0.954 RPM ratio (pull-down/input). Take “GATGATTGTTCTCCCAGCTGATGAATTGATCGAGTCGAGTAAACAAATTTTCCTAATCTTTCTGTTCAAGCGCCATCTAC”: the binding signal is 0.863 RPM ratio (pull-down/input).

As to “GATGATTGTTCTCCCAGCTGATGAATTAGGAATTTCGAGTAAACAAATTTTCCTAATCTTTCTGTTCAAGCGCCATCTAC”, the binding signal is 0.923 RPM ratio (pull-down/input). Regarding “GATGATTGTTCTCCCAGCTGATGAATTGGGCCGATCGAGTAAACAAATTTTCCTAATCTTTCTGTTCAAGCGCCATCTAC”, the binding signal was 0.818 RPM ratio (pull-down/input). Take “GATGATTGTTCTCCCAGCTGATGAATTAGTACCATCGAGTAAACAAATTTTCCTAATCTTTCTGTTCAAGCGCCATCTAC”: the binding signal is 1.11 RPM ratio (pull-down/input). As for “GATGATTGTTCTCCCAGCTGATGAATTCACGTCGTCGAGTAAACAAATTTTCCTAATCTTTCTGTTCAAGCGCCATCTAC”, the binding signal is 0.801 RPM ratio (pull-down/input).

For the sequence “GATGATTGTTCTCCCAGCTGATGAATTAATCGCGTCGAGTAAACAAATTTTCCTAATCTTTCTGTTCAAGCGCCATCTAC”, the binding signal is 1.01 RPM ratio (pull-down/input). Take “GATGATTGTTCTCCCAGCTGATGAATTAACAACGTCGAGTAAACAAATTTTCCTAATCTTTCTGTTCAAGCGCCATCTAC”: the binding signal is 1.16 RPM ratio (pull-down/input).

As for “GATGATTGTTCTCCCAGCTGATGAATTAAGGGCTTCGAGTAAACAAATTTTCCTAATCTTTCTGTTCAAGCGCCATCTAC”, the binding signal was 0.874 RPM ratio (pull-down/input). As to “GATGATTGTTCTCCCAGCTGATGAATTCTCCCCCTCGAGTAAACAAATTTTCCTAATCTTTCTGTTCAAGCGCCATCTAC”, the binding signal is 0.816 RPM ratio (pull-down/input). As to “GATGATTGTTCTCCCAGCTGATGAATTTCTGGATTCGAGTAAACAAATTTTCCTAATCTTTCTGTTCAAGCGCCATCTAC”, the binding signal is 0.863 RPM ratio (pull-down/input). Turning to “GATGATTGTTCTCCCAGCTGATGAATTGTACTCGTCGAGTAAACAAATTTTCCTAATCTTTCTGTTCAAGCGCCATCTAC”, the binding signal is 0.916 RPM ratio (pull-down/input).

With “GATGATTGTTCTCCCAGCTGATGAATTTGATATATCGAGTAAACAAATTTTCCTAATCTTTCTGTTCAAGCGCCATCTAC”, the binding signal was 0.995 RPM ratio (pull-down/input). “GATGATTGTTCTCCCAGCTGATGAATTGACGATGTCGAGTAAACAAATTTTCCTAATCTTTCTGTTCAAGCGCCATCTAC”: the binding signal is 1.09 RPM ratio (pull-down/input).

In the case of “GATGATTGTTCTCCCAGCTGATGAATTTAGGCTATCGAGTAAACAAATTTTCCTAATCTTTCTGTTCAAGCGCCATCTAC”, the binding signal is 0.955 RPM ratio (pull-down/input).
